Data from PubChem BioAssay (NCI).
Values joined by “and” are separate entries in the source; they are usually repeats but may differ in a detail not shown here. Identical values can stand only once.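 Dose response: 5 concentrations. Exposure: 48 h. Format: 96-well plates. Endpoint: linear interpolation; highest concentration if not reached. GI50 marks 50% less growth. At the TGI there is no net growth.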 Square brackets hold non-standard residues; d marks the D form. Peptide text beside a SMILES is read from it. * marks the point of attachment. NMeF = CN[CH](Cc1ccccc1)C(=O)O; NMeV = CN[CH](C(=O)O)C(C)C; Boc = CC(C)(C)OC(=O)*; OBn = c1ccc(CO*)cc1

The compounds below were run on NCI-H322M lung (assay: inhibition of tumour cell growth, NCI panel, 48 h).

Row | SMILES | GI50 | TGI
1 | CN(C)CCCNC(=O)c1cc2c3ccccc3[nH]c2c2ncccc12 | 20.4 µM | 59 µM
2 | O=C(c1ccc(O)cc1)c1ccc(C(=O)c2ccc(O)cc2)cc1 | > 100 µM | > 100 µM
3 | Cc1ccc(NC(=O)c2cccc([N+](=O)[O-])c2O)c(C)c1 | – | 72.7 µM
4 | CC(C)[C@@H](C(=O)O[C@@H]1/C=C/C(=O)O[C@@H](C)CCC/C=C/[C@@H]2C[C@H](O)C[C@H]21)[N+](C)(C)C | > 100 µM | > 100 µM
5 | CC(O)(c1ccccc1)c1nccc2ccccc12 (centres undefined) | – | > 100 µM
6 | O=C(N/C(=C\c1ccc([N+](=O)[O-])cc1)c1nc2[nH]c(=S)[nH]c(=O)c2[nH]1)c1ccccc1 | – | > 100 µM
7 | C/C1=C\CC[C@@](C)(O)[C@H]2C[C@H](CC/C(C)=C/CC1)C1(CC1)C(=O)O2 | 75.6 µM | > 100 µM
8 | CCC[CH2][Sn]1([CH2]CCC)[O]C(=O)C[S]1 | 4.57 µM | 15.7 µM
9 | COc1ccc(N2C(=O)C3c4[nH]c5ccccc5c4C4CCC(C(C)C)CC4C3C2=O)cc1 (centres undefined) | – | > 100 µM
10 | COC(=O)c1ccc(C)cc1C1CN=NC12Cc1cc(C)c(C)cc1C2=O (centres undefined) | – | > 100 µM
11 | CC(=O)OC1CCC2(C)C(CCC3C2CCC2(C)C(C4=CC(=O)OC4)CCC32)C1 (centres undefined) | 2.18 µM | 6.22 µM
12 | CN(N)C(=O)NCCCl | – | > 100 µM
13 | COc1ccc(N2CCN(CC(=O)N3CCN(c4nnc(-c5ccccc5)c(-c5ccccc5)n4)CC3)CC2)cc1 | > 67.5 µM | > 100 µM
14 | COC(=O)c1[nH]nc(-c2ccccc2)c1N1CCCCC1 | 30.6 µM | 63 µM
15 | COc1ccc2oc(-c3ccncc3)cc(=O)c2c1 | – | > 100 µM
16 | O=C1OCC2=C1C(c1cccc(F)c1)c1cc3c(cc1N2CCO)OCCO3 (centres undefined) | 0.337 µM | > 50 µM
17 | COc1ccc(-c2nnc3n(C)c(=O)c4ccccc4n23)cc1O | 2.58 µM | > 82.1 µM
18 | COc1ccc(C2C(C(=O)O)=C(COC(C)=O)Oc3cc4c(cc32)OCO4)cc1 (centres undefined) | – | > 100 µM
19 | Clc1ccc(OCC2NC3C=CC32)cn1 (centres undefined) | – | > 100 µM
20 | c1ccc(C(CCN2CCCC2)c2ccccn2)cc1 (centres undefined) | – | > 100 µM
21 | O=C1c2cnccc2Cc2cccc3c2N1c1ccccc1S3 | – | > 100 µM
22 | O=C1CC(c2ccccc2)Cc2nc3ccc(Cl)cc3cc21 (centres undefined) | 0.841 µM | > 100 µM
23 | CCOC(=O)N(CC)c1c(C(F)(F)F)cc(-c2ccccc2)[nH]c1=O | – | > 100 µM

Row | SMILES | GI50 | TGI
24 | C/C=C/C=C/C1=NN(c2cccc(S(=O)(=O)O)c2)C2(C1)SCC(=O)N2c1nc2ccccc2s1 (centres undefined) | – | > 100 µM
25 | COc1ccc2nc(-c3ccccc3)cc(Nc3ccc(/C(C)=N/O)cc3)c2c1 | 2.31 µM | 7.75 µM
26 | COc1cc(C2[C@H]3C(=O)N(c4ccc(Cc5ccc(N6C(=O)[C@@H]7ON(c8ccccc8)C(c8cc(OC)c(OC)c(OC)c8)[C@@H]7C6=O)cc5)cc4)C(=O)[C@H]3ON2c2ccccc2)cc(OC)c1OC (some centres undefined) | – | > 100 µM
27 | CC(=O)c1ccc2c(c1)oc(=O)n2CCN(C)C | – | > 100 µM
28 | CCCCCCC(CCl)c1sc(-c2csc(CCNC(=O)OC(C)(C)C)n2)nc1C(=O)OC (centres undefined) | – | > 100 µM
29 | Cc1ccc(O)c(Cc2nc3ccccc3nc2-c2cccc(Br)c2)c1 | – | > 100 µM
30 | Sc1nnc(-c2ccccc2Nc2ccccc2-c2nnc(S)n2-c2ccccc2)n1-c1ccccc1 | – | > 100 µM
31 | O=C1c2ccccc2C(=O)N1C(=S)c1ccccc1 | – | > 100 µM
32 | Cc1sc2nc(-c3ccccn3)c(/C=N/N=C(N)N)n2c1C | 9.08 µM | 17.1 µM
33 | O=C1C[C@H](c2ccccc2)C2(C(=O)c3ccccc3C2=O)[C@@H](c2ccccc2)C1 | – | > 100 µM
34 | Cc1ccc(S(=O)(=Nc2ccccc2)C(C(C)C)C(C)(C)Cl)cc1 (centres undefined) | – | > 50 µM
35 | CC(=O)OCCC/C(=C\c1ccc2ccccc2c1)[N+](=O)[O-] | 2.02 µM | 4.82 µM
36 | COc1cc(C)c(C(=O)/C=C/c2cc(OC)c(O)c(OC)c2)cc1O | – | 69.9 µM
37 | O=[N+]([O-])c1cccc2nc3ccccc3c(NCCC[N+]3([O-])CCCCC3)c12 | – | 4.12 µM
38 | CCN(CC)C(=S)SNCCc1ccc(S(N)(=O)=O)cc1 | – | > 100 µM
39 | N=C(N)n1[nH]c2c(c1=O)CCC2 | – | > 100 µM
40 | BrP(NC1CCCCCC1)(c1ccccc1)(c1ccccc1)c1ccccc1 | – | 34.4 µM
41 | COc1cc(/C=C/C(=O)c2c(C)n([O-])c3cc(C)c(C)cc3[n+]2=O)cc(OC)c1OC | 17.1 µM | 37.6 µM
42 | O=C(O)c1cn(C2CC2)c2cc(N3CCN(S(=O)(=O)c4ccc(Cl)c(Cl)c4)CC3)c(F)cc2c1=O | 3.24 µM | > 100 µM
43 | Cc1nnc(N)nc1/C=C\c1cccs1 | – | 59.5 µM
44 | NCCCCNCCCN | – | > 100 µM
45 | Cc1cc(=O)c2c(O)c3c(O)cc(O)c4c5c(O)cc(O)c6c(O)c7c(=O)cc(C)c8c1c2c(c34)c(c65)c78 | > 100 µM and 23.1 µM | > 100 µM and 57.4 µM
46 | CC(=O)Oc1ccc(OC(Oc2ccccc2)c2ccccc2)cc1 (centres undefined) | – | > 100 µM

Row | SMILES | GI50 | TGI
47 | COC(=O)Nc1nc2c(OC)c(OC)c(OC)cc2[nH]1 | 34.3 µM | > 100 µM
48 | [N-]=[N+]=C1CNC(=O)NC1=O | – | > 100 µM
49 | CC1OC(OC2C(OC3C[C@@]4(C)C(C[C@H](O)[C@H]5[C@H](C6(C)CCC(C(C)(C)O)O6)CCC54C)[C@]4(C)CC[C@@H](O)C(C)(C)C34)OC(CO)C(O)C2O)C(O)C(O)C1O (some centres undefined) (tested in a mixture with another compound) | – | > 100 µM
50 | COc1cc2c(c3oc(-c4ccc5c(c4)OCO5)c(O)c(=O)c13)CCC(C)(C)O2 | – | > 100 µM
51 | COc1cc2c(cc1OCCCCC(=O)Nc1ccc(-c3nc4ccccc4s3)cc1)N=C[C@@H]1CCCN1C2=O | 2.81 µM | 8.45 µM
52 | CC(C)C(NC(=O)OC(C)(C)C)C(=O)N(C)C(Cc1ccccc1)C(=O)N(C)C(C(=O)N(C)C(C(=O)OCc1ccccc1)C(C)C)C(C)C (centres undefined) (Boc-V[NMeF][NMeV][NMeV]-OBn; configuration not given here) | – | > 100 µM
53 | O=C(NN=C1CCCCC1)Nc1ccccc1Cl | – | > 100 µM
54 | O=c1c2cc(-c3ccccc3)cnc2sn1-c1ccc([N+](=O)[O-])cc1 | – | > 100 µM
55 | CSc1nc2c(nc(N)n2C2OCC(O)C(O)C2O)c(=O)[nH]1 (centres undefined) | – | > 100 µM
56 | Cc1c(N2C(=O)/C(=C\c3ccc(O)cc3)N=C2c2ccccc2)c(=O)n(-c2ccccc2)n1C | > 100 µM | > 100 µM
57 | O=C(Cc1ccccc1)Nc1nnc(CCSCCc2nnc(NC(=O)Cc3ccccc3)s2)s1 | 2.63 µM | 58.5 µM
58 | COc1cc(/C=C(\NC(=O)c2ccccc2)c2nc3ccc([N+](=O)[O-])cc3[nH]2)cc(OC)c1OC | – | > 100 µM
59 | COc1cc(C(=O)/C=C/c2c(-c3ccc(F)cc3)nc3sccn23)cc(OC)c1OC | 2.37 µM | 21.7 µM
60 | c1ccc(Cn2cc3c(c2)-c2oncc2CC3)cc1 | 3.06 µM | > 100 µM
61 | O=C(Nc1ccc2ccccc2c1)Nn1cnnc1 | – | > 100 µM
62 | C=CCN1CC2CN=NC2(C#N)C1 (centres undefined) | – | > 100 µM
63 | CC1(C)CCc2cc3c(cc2O1)OC(C)(C)C1c2c(ccc4c2CCC(C)(C)O4)OC31 (centres undefined) | – | > 100 µM
64 | CCCCCC(/C=C/[C@@H]1CC(=O)C[C@H]1O[Si](C)(C)C(C)(C)C)OCOCCOC (some centres undefined) | – | 32.6 µM
65 | C=C1c2nc3ccccc3n2C=C(c2ccc(Cl)cc2)N1c1ccccc1 | – | > 100 µM
66 | COC1=NN2C(OC)(c3ccccc3)c3c(-c4ccccc4)sc(-c4ccccc4)c3C2(c2ccccc2)S1 (centres undefined) | – | > 100 µM
67 | O=C([C@H](O)[C@@H](O)c1ccc(Br)cc1)C12CC3CC(CC(C3)C1)C2 | – | 32.2 µM
68 | Cc1cccc2c(N)c3cccc(C(=O)NCC[N+](C)(C)Cc4sc(N5CCOCC5)nc4[N+](=O)[O-])c3nc12 | – | 29.3 µM
69 | COC(=O)C1CC2(c3ccc(C)cc3)C(c3ccc(C)cc3)=C(c3ccc(C)cc3)C1(c1ccc(C)cc1)S2=O (centres undefined) | > 100 µM | > 100 µM

Row | SMILES | GI50 | TGI
70 | O=C(CCCn1ccnc1[N+](=O)[O-])NCCn1cnc([N+](=O)[O-])c1 | – | > 100 µM
71 | COc1ccc(N2CCN(c3ccc4c(c3)NCC(=O)N4)CC2)cc1 | – | > 100 µM
72 | C=C1C(=O)[C@]23[C@H](O)[C@H]1CC[C@H]2[C@@]12CO[C@@]3(O)C[C@@H]1C(C)(C)CC[C@@H]2O | – | > 25 µM
73 | N/C(=N\OC(=O)NC(Cl)=C(Cl)Cl)c1cc(C(F)(F)F)cc(C(F)(F)F)c1 | – | 25.5 µM
74 | Oc1[nH]c2ccccc2c1N=NC(=S)N1CCCCCC1 | – | 6 µM
75 | CNC1=C(C)C(=O)C(C)=C(C(C)(C)CC(=O)n2cc(F)c(=O)[nH]c2=O)C1=O | – | > 100 µM
76 | CC[C@@]1(O)C(=O)OCc2c1cc1n(c2=O)Cc2c-1nc1ccccc1c2/C=N\NC(=O)C(N)CS (some centres undefined) | – | > 100 µM
77 | COc1cc(N(C)C)ccc1/C=c1/c2ccccc2n2c1cc(-c1ccccc1)[n+]2C | – | 2.09 µM
78 | O=C1c2c(c3c4ccccc4n4c3c3c2c2ccccc2n3C/C=C\C4)C(=O)N1Cc1ccccc1 | – | > 100 µM
79 | Cc1ccc(C(=O)Nc2ccc(CN3CCN(C)CC3)c(C(F)(F)F)c2)cc1C#Cc1cncc2ncccc12 | 0.465 µM | 9.95 µM
80 | N#CC1N(C(=O)c2ccc(F)cc2)c2ccccc2N1C(=O)c1ccc(F)cc1 | – | > 100 µM
81 | Brc1cccc(C2(CCCC3(c4cccc(Br)n4)OCCO3)OCCO2)n1 | – | > 100 µM
82 | COc1cc2c3c(cc(Cl)nc3c1OC)C(O)(CC(C)=O)C(=O)N2 (centres undefined) | – | > 100 µM
83 | COc1cc(Nc2ncc3c(n2)-c2ccc(Cl)cc2C(c2c(F)cccc2OC)=NC3)ccc1C(=O)O | 26.7 µM | > 95.1 µM
84 | CC(C)(C)c1ccc(C(=O)N/N=C/c2ccc(O)cc2O)cc1 | 0.323 µM | 12.4 µM
85 | CCOC(=O)/C=C(/C(=O)OCC)n1c(=O)c(C)cn(C2CC(N=[N+]=[N-])C(CO)O2)c1=O (centres undefined) | – | > 100 µM
86 | Cc1cc2nc3ccc(N=Nc4ccc(N(C)C)cc4)cc3n(-c3ccccc3)c-2cc1=N | 0.223 µM | 1.78 µM
87 | Cc1cn(C2C=CC(=O)C(C)O2)c(=O)[nH]c1=O (centres undefined) | – | 40.5 µM
88 | CN(C)CCCNC(=O)c1cc(NC(=O)c2cc(NC(=O)c3cc(NC(=O)CCCn4ccc(CO)c4CO)cn3C)cn2C)cn1C | – | > 100 µM
89 | CC(=O)Nc1ccc(-c2nnc(SCC(=O)Nc3ccccc3[N+](=O)[O-])o2)cc1 | – | > 100 µM
90 | Cc1cc(N(CCCNc2ccnc3cc(Cl)ccc23)Cc2cccs2)nc(Cl)n1 | 4.1 µM | 17.3 µM
